Values joined by “and” are separate entries in the source; they are usually repeats but may differ in a detail not shown here. Equal values may be shown once.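 Tested at 5 concentrations; 48 h exposure; 96-well plates; endpoints linearly interpolated, else capped at highest concentration. At the GI50, growth is halved.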 Active and inactive are the calls of the source. Cut-off read from the data, not from the text of the source: active = GI50 up to about 1.1 µM and inactive = higher.

The assay has as its system NCI-H322M. Put plainly: inhibition of tumour cell growth, NCI panel, 48 h.
Turning to `O=[N+]([O-])c1cc(-[n+]2cc([O-])on2)ccc1Cl`, the GI50 was inactive: 14.6 µM.
For the compound `Cc1c(CCO)c(O)n2c(nc3ccccc32)c1C#N`, the GI50 is inactive: > 100 µM.
Consider `COc1ccc2c(c1)Cc1cc(/N=[N+](\[O-])c3ccc4c(c3)Cc3cc(OC)ccc3-4)ccc1-2`, for which the GI50 is inactive: > 100 µM.
Consider `Cc1cc(C)nc(NS(=O)(=O)c2ccc(NC(=O)c3cccc4c(N)c5ccccc5nc34)cc2)n1`, for which the GI50 was inactive: > 100 µM.
For `O=C(c1ccccc1)c1c(C(F)(F)F)[n+]([O-])c2ccccc2[n+]1[O-]`, the GI50 was inactive: 3.37 µM.
Take `Cc1ccc(S(=O)(=O)c2ccccc2[N+](=O)[O-])cc1`: the GI50 was inactive: 72.4 µM.
As to `CN1C(=O)c2cccc3c([N+](=O)[O-])ccc(c23)C1=O`, the GI50 was inactive: 15.6 µM.
With `COc1ccc([C@H]2C=[N+]([O-])O[C@H](OC3CCCC3)[C@@H]2OC(C)=O)cc1OC`, the GI50 is inactive: 39 µM.
Turning to `CC(Oc1ccccc1)C(=O)NN` (stereo unspecified), the GI50 was inactive: > 100 µM.
Take `Cn1c(=O)c2c3ccccc3c(C(=O)c3ccccc3)n2c2ccccc21`: the GI50 is inactive: > 100 µM.
Regarding `O=[N+]([O-])c1cccc(C2=NOC(C3CCCCC3)C2)c1` (stereo unspecified), the GI50 is inactive: > 100 µM.
Then `C=C(Cl)C(Cl)(CBr)CCC(Br)C(C)(C)Cl` (stereo unspecified), with inactive: 2.99 µM and inactive: 1.46 µM and inactive: 1.81 µM.
As to `CCN(CC)c1nc(N(C)C)c2ccccc2n1`, the GI50 was inactive: 23.9 µM.
For `CCC1OCCN1C(C)C` (stereo unspecified), the GI50 is inactive: > 100 µM.
Take `COc1ccc(/C(=N\NC(=O)C(=O)NN)C(c2ccc(OC)cc2)C2(O)C(=O)Nc3ccccc32)cc1` (stereo unspecified): the GI50 is inactive: > 100 µM.
In the case of `COC(=O)c1c(C(=O)OC)c2ccccn2c1-c1cc(C)cc2c1C(=O)C=CC2=O`, the GI50 is inactive: 13.8 µM.
For the compound `C/C(=C\CC/C=C(\C)CC/C=C(\C)CCC1SC1(C)C)CC/C=C(\C)CCC1OC1(C)C` (stereo unspecified), the GI50 was inactive: > 100 µM.
In the case of `CC(=O)OC12C3C4C1C1C2C3C41OC(C)=O` (stereo unspecified), the GI50 is inactive: > 100 µM.
Then `CCOC(=O)C1=C(Nc2ccc(Br)cc2)OCC1=O`, with inactive: > 100 µM; and `NC(=S)N/N=C(/C(=O)Nc1nc2ccc([N+](=O)[O-])cc2s1)C1C(=O)NC(=S)NC1=O`, with inactive: > 100 µM.
With `Cc1c(/C=N/NC(=S)Nc2ccccc2Cl)c(=O)n(-c2ccccc2)n1C`, the GI50 was inactive: 32.6 µM.
As for `COC(=O)c1c(N)n[nH]c1N`, the GI50 is inactive: > 100 µM.
`CN(COC(=O)c1ccccc1)c1nc(N(C)COC(=O)c2ccccc2)nc(N(C)COC(=O)c2ccccc2)n1`: the GI50 was inactive: > 90.6 µM.
`CCCCCCCCCCCCCCCCCCNc1ccn(C2OC(COP(=O)(O)OCCCCCCCCCCCCCCCC)C(O)C2O)c(=O)n1` (stereo unspecified): the GI50 was inactive: > 100 µM.
Turning to `O=C1C2C3CC4C5C3C1C5C1(SCCS1)C42` (stereo unspecified), the GI50 was inactive: > 100 µM.
Take `O=C1C(NCCF)=C(Cl)C(=O)c2ncccc21`: the GI50 was active: 1.04 µM.
For the compound `C=C(C)[C@H]1CC[C@@]2(C)C(C1)[C@H](C)CC[C@@H]2O` (stereo partly specified), the GI50 was inactive: > 100 µM.
With `Nc1ccc2c(c1)S(=O)(=O)c1cc(O)ccc1O2`, the GI50 is inactive: > 100 µM.
Consider `CC(=O)Nc1ncc2c(n1)-c1ccccc1OC2`, for which the GI50 is inactive: > 100 µM.
On to `O=C1NCc2ccccc2S(=O)(=O)n2cccc21`, for which the GI50 was inactive: > 100 µM.
For the compound `CC1CCCP(=O)(c2ccccc2)CCC1` (stereo unspecified), the GI50 is inactive: > 100 µM.
For `COC(=O)C1=CSC2(S1)C(C(=O)OC)=CSc1c2ss/c1=N\c1ccccc1` (stereo unspecified), the GI50 was inactive: 3.19 µM.
On to `CCCCCCCCCCCCCCCCOC[C@H](COC(c1ccccc1)(c1ccccc1)c1ccccc1)O[PH](=S)OC` (stereo partly specified), for which the GI50 is inactive: > 100 µM.
On to `COC(=O)c1ccc(C)cc1CC1Cc2cccc(C)c2C1=O` (stereo unspecified), for which the GI50 is inactive: 25 µM.
Turning to `COc1cc(NCc2ccc3oc(=O)c(-c4ccccc4)nc3c2)cc(OC)c1OC`, the GI50 was inactive: > 10 µM.
In the case of `C/C(CC(O)(C(F)(F)F)C(F)(F)F)=N\NC(N)=S`, the GI50 was inactive: > 10 µM.
Take `CC(=O)OCc1cncn1S(=O)(=O)c1ccc(C)cc1`: the GI50 is inactive: > 100 µM.
For `Cn1c(C(C#N)c2cc(Cl)ncn2)nc2ccccc21` (stereo unspecified), the GI50 was inactive: > 100 µM.
As to `CSc1cc(-c2cc3ccccc3o2)oc(=O)c1C#N`, the GI50 was inactive: > 100 µM.
Take `Cn1c(=O)cc(NNc2ccccc2)[nH]c1=O`: the GI50 was inactive: 50.4 µM.
`COCC(=O)CP(=O)(OC)OC`: the GI50 is inactive: > 100 µM.
As to `C=CCNC1=NC(=O)C(CC(=O)Nc2ccc([N+](=O)[O-])cc2[N+](=O)[O-])S1` (stereo unspecified), the GI50 is inactive: > 100 µM.
For the compound `CC(=O)OC12c3ccccc3C1CCCCCC21OCCCO1` (stereo unspecified), the GI50 is inactive: > 100 µM.
Then `Nc1ccc(/N=N/c2c(S(=O)(=O)O)cc3ccccc3c2S(=O)(=O)O)cc1`, with inactive: > 100 µM; and `NC(CCCCN/C=C1/N=C(c2ccccc2)OC1=O)C(=O)O` (stereo unspecified), with inactive: > 100 µM; and `CCOC(=O)N1C/C(=C\c2ccccc2)C(=O)/C(=C/c2ccccc2)C1`, with inactive: 15 µM.
As to `Cc1cc(C)n(-c2nc3ccccc3c(=O)n2-c2ccccc2)n1`, the GI50 is inactive: > 100 µM.
In the case of `COc1cc(C(=O)NNC(=O)c2cc(Br)ccc2NC(=O)c2cccs2)cc(OC)c1OC` it was inactive: 22.4 µM.
Turning to `CCCC[Si](CCCC)(CCCC)O[C@@H](/C=C/C(=O)OCC)[C@H](Cc1ccccc1)O[Si](CCCC)(CCCC)CCCC`, the GI50 is inactive: > 100 µM.
In the case of `Cc1c(S(=O)(=O)/N=C(\NN)Nc2ccc(Cl)cc2)sc2ccc(Cl)cc12`, the GI50 was inactive: 17 µM.
Then `CCOC(=O)c1c2ccccc2n2c(=O)n(C)nnc12`, with inactive: > 100 µM.
In the case of `Cn1/c(=N\c2ccc(Cl)cc2)sc2ccccc21`, the GI50 is inactive: 85.1 µM.
Then `N#Cc1ccc(/C=N\N2C(=O)c3ccccc3C2=O)cc1`, with inactive: > 100 µM.
Consider `CCOC(=O)Nc1ccc2c(c1)c(CCCCCCc1nc3ccccc3c3ccc(NC(=O)OCC)cc13)nc1ccccc12`, for which the GI50 was inactive: 12.8 µM.
Turning to `CC1(C)CC(=O)/C(=C/C2CCNC2=S)C(=O)N1` (stereo unspecified), the GI50 was inactive: > 100 µM.
For the compound `COC(=O)[C@H](Cc1ccccc1)NC(=O)N(CCC#N)CCN(C(=O)N[C@@H](Cc1ccccc1)C(=O)OC)c1ccccc1`, the GI50 is inactive: 20.5 µM.
In the case of `CN1C(=O)C2C=C3CCCCC3=CC2N(C)C1=O` (stereo unspecified) it was inactive: > 100 µM; in that of `Cc1nc(Nc2ccc(Cl)cc2)sc1C(=O)NNC(=S)NN`, inactive: 20.8 µM.
In the case of `O=CCCCC(Sc1ccccc1)Sc1ccccc1` it was inactive: > 100 µM; in that of `COC(=O)C1=C(O)C(C(=O)OC)[C@]2(O)[C@H](C(=O)OC)[C@H]1C[C@@H](c1ccccc1OC)[C@H]2C(=O)OC` (stereo partly specified), inactive: 11.3 µM; in that of `N/C(=N\O)N/N=C/c1cccc(F)c1`, inactive: 27.9 µM.
In the case of `CCOC(=O)NNC1(SC)NC(=O)c2c(cc(Cl)oc2=O)O1` (stereo unspecified) it was inactive: 11 µM; in that of `COC(=O)C(C(=O)C(=O)Nc1ccc([N+](=O)[O-])cc1)c1nc2cc(C)c(C)cc2nc1O` (stereo unspecified), inactive: > 100 µM.
As to `C=C(C)C(=O)/N=C(\N)NC#N`, the GI50 is inactive: 179 µM.
With `COC(=O)CN(CC1O[C@@H]2OC(C)(C)O[C@@H]2C1NC(C)=O)C(=O)OCc1ccccc1` (stereo partly specified), the GI50 is inactive: > 100 µM.
`CC(C)=C1C(=O)C[C@]2(C)C[C@H]3O[C@]3(C)CC[C@@H]3O[C@@]3(C)CC[C@@H]12`: the GI50 was inactive: > 50 µM.
Consider `CCc1ccc(/C(C)=N/NC(N)=S)cc1`, for which the GI50 was inactive: > 100 µM.
Regarding `O=C1C=C2C(=NC34CCCCC3C(c3ccccc3)C3=C(c5ccccc5CC3)N24)c2ccccc21` (stereo unspecified), the GI50 is inactive: > 10 µM.
Regarding `Cc1cc(C)c(C#N)c(SC(=S)NC(=O)c2ccc(Cl)cc2)n1`, the GI50 is inactive: > 100 µM.
As for `CC1CCCOc2ccc(cc2)/C=N\c2ccc(cc2)CCc2ccc(cc2)/N=C\c2ccc(cc2)OCCC1`, the GI50 is inactive: > 100 µM.
Turning to `O=C(COc1ccccc1)N(C(=O)N1CCN(c2ccccc2)CC1)S(=O)(=O)c1ccccc1`, the GI50 was inactive: > 100 µM.
As for `COc1ccc(/C=C2\C[C@H]3[C@@H]4CCC5=C[C@@H](N6CCCC6)CC[C@]5(C)[C@H]4CC[C@]3(C)[C@H]2O)cc1`, the GI50 is inactive: 3.21 µM.
As to `OCCOCCO[P+]1(OCCOCCO)n2c3ccc2C(c2ccccc2)=C2C=CC(=N2)C(c2ccccc2)=c2ccc(n21)=C(c1ccccc1)C1=NC(=C3c2ccccc2)C=C1`, the GI50 was active: 0.147 µM.
In the case of `CC12CCC(=O)[C@@]1(C)CCCC2=O` (stereo partly specified) it was inactive: 81.1 µM; in that of `NS(=O)(=O)c1nnc(NC(=O)Nc2ccc(Cl)c(Cl)c2)s1`, inactive: 19.7 µM.
In the case of `COc1ccc(C(C)c2cc3c(cc2O)OCO3)cc1` (stereo unspecified) it was inactive: 21.4 µM; in that of `CC[S+](C)c1ccc(-c2c3nc(c(-c4ccc([S+](C)CC)cc4)c4ccc([nH]4)c(-c4ccc([S+](C)CC)cc4)c4nc(c(-c5ccc([S+](C)CC)cc5)c5ccc2[nH]5)C=C4)C=C3)cc1.[O-][Cl+3]([O-])([O-])[O-].[O-][Cl+3]([O-])([O-])[O-].[O-][Cl+3]([O-])([O-])[O-].[O-][Cl+3]([O-])([O-])[O-]` (stereo unspecified), inactive: 8.97 µM.
On to `COc1ccc(Nc2n[nH]c(NS(=O)(=O)c3cc(C)c(Cl)cc3S)n2)cc1`, for which the GI50 was inactive: > 100 µM.
Then `C=C1C(=O)O[C@H]2C(=O)[C@H](C)CCC/C(C)=C/CC[C@@]3(C)O[C@@H]3C[C@@H]12`, with active: 0.902 µM.
In the case of `Cn1c(=O)nc2n(-c3ccc(Cl)cc3Cl)c3ccccc3nc-2c1=O`, the GI50 is inactive: 7.33 µM.
Then `COC(=O)NCCc1n[nH]c2c1C(=O)C=C(OC)C2=O`, with inactive: 51.4 µM.

For the origin of these results see ChEMBL document CHEMBL1201862, “PubChem BioAssay data set” (2004).
